This is one part of the list. At the low end of the ranking the order means little.

The target in this assay is T1, GST-Rok-C97-191 (UniProt O34857).
T1 sequence: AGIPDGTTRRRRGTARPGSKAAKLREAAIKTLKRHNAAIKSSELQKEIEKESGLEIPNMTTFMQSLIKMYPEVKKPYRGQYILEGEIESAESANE
As to the kind of experiment: protein binding microarray.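 Note: rank score from −0.5 (least bound) to 0.5 (best bound).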 The settings on record: Rok is a gene silencer of Bacillus subtilis; high values mean tight binding; most listed sequences are background and not binding sites; double strand, one strand shown.
ACCCAGGG showed a binding signal of -0.112 E-score.
Then AAGGAAGT, with -0.225 E-score; and CACGGCTG, with -0.248 E-score.
CCCTTAAC: the binding signal was -0.11 E-score.
The sequence CTTTACTC registered a binding signal of -0.199 E-score.
Then CAGGCCAG, with -0.2 E-score; and CCACTAAG, with 0.00608 E-score; and GCCAGGCC, with -0.209 E-score.
Then GGAGCTCC, with 0.0246 E-score; and CAGCAGTA, with -0.0875 E-score; and ATTGTGGG, with 0.052 E-score.
Then CTGACGGA, with -0.271 E-score; and AATTAGAG, with 0.17 E-score; and TATGCCCA, with -0.134 E-score.
Take CATGCTCC: the binding signal was -0.102 E-score.
Then TAATTGCA, with 0.133 E-score; and CTTCACCC, with -0.0668 E-score; and GGGGGATA, with -0.134 E-score.
The sequence ATGGGTAC had a binding signal of 0.0396 E-score.
Then AAGTGAAT, with 0.0373 E-score.
Then CCCACTCC, with -0.161 E-score.
With GCTGAGAA, the binding signal was -0.0968 E-score.
Take CAAGGCCA: the binding signal was -0.3 E-score.
On to TGCCAACA, for which the binding signal worked out at 0.0271 E-score.
In turn, AATACTCA showed a binding signal of 0.0071 E-score.
Then ATTGGGGG, with -0.194 E-score; and ATAAGCGG, with -0.088 E-score.
Then AGACACGG, with 0.126 E-score.
CCAATATA had a binding signal of 0.323 E-score.
The sequence CGATCGAC displayed a binding signal of -0.0612 E-score.
ATGCATCG returned a binding signal of -0.0373 E-score.
In the case of GATAATGC, the binding signal was 0.218 E-score.
In turn, GACTCAGA returned a binding signal of -0.0868 E-score.
As for AGGTGGAG, the binding signal was -0.3 E-score.
Regarding CTTTGTTA, the binding signal is 0.0672 E-score.
Then ACAACATA, with 0.128 E-score; and AGCTAGAA, with 0.322 E-score.
AGTCCCTG showed a binding signal of -0.309 E-score.
ATCCGGGG: the binding signal was -0.204 E-score.
Regarding GCCCTCTA, the binding signal was -0.203 E-score.
Then CCATTGGA, with -0.127 E-score; and ATCGTTGG, with -0.115 E-score.
The sequence AGGGACCT yielded a binding signal of -0.14 E-score.
Consider CAGAGTTA, for which the binding signal is -0.00404 E-score.
Then CCTGCACG, with 0.0392 E-score; and AAGTGGCC, with -0.135 E-score; and CAGGTTGC, with -0.21 E-score.
Then CAATACTA, with 0.217 E-score; and ATCCCGGA, with -0.094 E-score; and TAGCAGCA, with -0.033 E-score.
Regarding AAGAACCA, the binding signal was determined as 0.0725 E-score.
On to TCTCGACA, for which the binding signal was -0.0136 E-score.
In turn, GTAGTACA showed a binding signal of 0.272 E-score.
Then AACTTCAC, with -0.0796 E-score.
AGATTGTG came in with a binding signal of 0.09 E-score.
For CTTATGGC, the binding signal is -0.0994 E-score.
Then TCACACCA, with 0.00467 E-score; and GACAACTC, with -0.0886 E-score.
CATGCTAC came in with a binding signal of 0.125 E-score.
Then ATCCTTGC, with -0.136 E-score; and CCTAGGGC, with -0.225 E-score.
Then ATATTAGC, with 0.316 E-score; and GTCATGAC, with -0.101 E-score; and TATCTGCA, with 0.0819 E-score.
Then GTTCAACA, with 0.0437 E-score; and CTTACGTC, with -0.00655 E-score.
Turning to GTCCTAGA, the binding signal is -0.199 E-score.
AGTCCCGA came in with a binding signal of -0.25 E-score.
For the sequence ATTCTTTA, the binding signal is 0.162 E-score.
In the case of CGTACAAC, the binding signal stood at 0.0132 E-score.
Then ATTATGTC, with 0.00895 E-score; and CGGCTGTC, with -0.357 E-score; and GTTTGGAA, with 0.176 E-score.
GAAGACTA displayed a binding signal of 0.107 E-score.
Then CACTTTAC, with 0.0431 E-score; and AGTAATAA, with 0.238 E-score; and AGCCAGAG, with -0.31 E-score.
In turn, ACTCCTAG yielded a binding signal of 0.023 E-score.
Then CCCATGCC, with -0.0926 E-score; and ATAGTGCA, with -0.145 E-score; and CTAAGACC, with -0.137 E-score.
Then ATATGTTG, with 0.084 E-score.
Then CTATTAAG, with 0.122 E-score; and CAACTTGG, with -0.0938 E-score; and CTATTAAA, with 0.0376 E-score.
Turning to GGCACCAA, the binding signal is -0.188 E-score.
Take CCGCCTAG: the binding signal was -0.149 E-score.
Then ATGTGGAA, with 0.0307 E-score.
Then CGACTTAC, with 0.143 E-score; and CAAGACCA, with -0.0856 E-score; and GCAAACCA, with -0.0828 E-score.
Then AAAAGCTA, with 0.124 E-score.
CTTGCGTA: the binding signal was 0.0155 E-score.
In turn, CTCAGTAA yielded a binding signal of 0.00185 E-score.
Then ATCTGGGA, with -0.128 E-score; and ATTTAATA, with 0.214 E-score; and CTCATCAC, with -0.017 E-score.
Then ACTGTAAA, with 0.156 E-score; and ATGTACAG, with 0.317 E-score; and CTTACAAA, with -0.00564 E-score.
Then GAGACTGC, with -0.193 E-score; and AAAACGGG, with -0.0383 E-score; and CTTCAAGC, with -0.141 E-score.
In turn, CGCCGTGC yielded a binding signal of -0.194 E-score.
Then GCATCGCA, with -0.146 E-score; and GCCCTAGC, with -0.171 E-score; and AGTTCTGA, with 0.203 E-score.
Then CATCAGTA, with 0.0127 E-score; and ACAACGTG, with -0.0914 E-score; and CCTTCTAC, with 0.235 E-score.
Then AGCTCGCC, with -0.204 E-score; and CGCTTGAA, with -0.051 E-score.
Consider GAACACAC, for which the binding signal was -0.143 E-score.
Then GGCACCGA, with -0.423 E-score; and ACATACTA, with 0.305 E-score; and AATGGGGT, with -0.00667 E-score.
Then TAAAGAAA, with 0.0107 E-score; and GCGTGAGC, with -0.312 E-score.
Then CTCATGTA, with 0.135 E-score.
Turning to AACGAGGT, the binding signal was -0.12 E-score.
Sequence AGCACCCT returned a binding signal of 0.0686 E-score.
Then ACTTCAAA, with 0.0987 E-score; and CACTTTCA, with -0.0558 E-score; and CGAAACTA, with 0.425 E-score.
Consider GGAGGCAC, for which the binding signal was -0.0636 E-score.
For the sequence GAACACGA, the binding signal turned out to be 0.0227 E-score.
Then CAATTCCC, with 0.0632 E-score; and ATCATCCG, with -0.0673 E-score; and AGATTTTA, with 0.299 E-score.
The sequence CGCGCGCG gave a binding signal of -0.0372 E-score.
Turning to CGCCGAAC, the binding signal is -0.0774 E-score.
Then ATGCTTCG, with 0.014 E-score; and AACAGTTA, with 0.204 E-score.
Then GCCGTAAC, with 0.0479 E-score.
Then CCAGCCGC, with -0.263 E-score.
Sequence ATGACTAC gave a binding signal of 0.145 E-score.
Then TGCACCAA, with 0.0482 E-score; and CCATGCAC, with -0.183 E-score; and CTGTGTAC, with 0.0804 E-score.
Then CAAGTATA, with 0.251 E-score; and ACAGTAAA, with 0.251 E-score.
Then AGGCTACC, with -0.187 E-score.
In the case of ACTAGTAA, the binding signal worked out at 0.423 E-score.
AGCAGCAG had a binding signal of -0.148 E-score.
Regarding ATCTTCAC, the binding signal was found to be 0.111 E-score.
Sequence CCTGCGCG had a binding signal of -0.0904 E-score.
Then GGTCGTGA, with -0.175 E-score.
Take CGGAATTC: the binding signal came out at 0.0787 E-score.
For the sequence ACCGTTAT, the binding signal is 0.165 E-score.
Then AGATCGAG, with -0.0213 E-score; and CAACGGTG, with -0.203 E-score; and AACATGAG, with -0.00961 E-score.
Then ACTCGGAC, with -0.176 E-score.
Then GAGGAAAC, with -0.161 E-score; and ATGGTACG, with 0.137 E-score.
In the case of ACGGTATC, the binding signal amounted to 0.0548 E-score.
ATGACACC yielded a binding signal of -0.0746 E-score.
AGGCCCCG: the binding signal is -0.383 E-score.
For TGAGCCAA, the binding signal was -0.216 E-score.
AAAGGTTA returned a binding signal of -0.115 E-score.
Then CTGGCTTA, with -0.0809 E-score.
Consider AGTGCCCC, for which the binding signal is -0.302 E-score.
Then AGACTTAC, with -0.0408 E-score; and AAGCGCAA, with -0.015 E-score; and AGAGGTGC, with -0.216 E-score.
Then CCACCCTA, with 0.0328 E-score; and AGCCGGGC, with -0.295 E-score; and ACCAGGAG, with -0.064 E-score.
CCTCCAAG came in with a binding signal of -0.281 E-score.
Then GTAAAAAA, with 0.246 E-score; and ACCCATTC, with -0.031 E-score; and GCGCAGAA, with 0.00407 E-score.
Turning to AAGATGGT, the binding signal is -0.0403 E-score.
Then CTGACTCA, with -0.13 E-score.
Then ATTAGTGG, with 0.187 E-score; and TCAGATGA, with -0.0424 E-score.
With AAGACTGA, the binding signal is -0.0203 E-score.
ATGCCCGC registered a binding signal of -0.112 E-score.
Then AGCAGCCT, with -0.144 E-score; and CAACTCAC, with 0.0168 E-score.
Then CTTGGGCC, with -0.329 E-score; and AGATTAAG, with 0.053 E-score.
Then ATAGCAGA, with -0.0016 E-score; and CCATGCAG, with -0.143 E-score; and CAATAGGA, with 0.00492 E-score.
Sequence CACCCCTA came in with a binding signal of -0.16 E-score.
Then CGGAAGGC, with -0.346 E-score.
With GTACCCAC, the binding signal was 0.0317 E-score.
On to TAATTAGA, for which the binding signal amounted to 0.324 E-score.
On to TAAGAGAA, for which the binding signal is 0.209 E-score.
Then CGTTAGAG, with -0.0338 E-score; and CCAGCCAA, with -0.174 E-score; and AATGCGTG, with -0.0174 E-score.
Then ACTTACCC, with -0.202 E-score; and AGACCGCG, with -0.192 E-score; and GTCCAGAA, with -0.0181 E-score.
Then AACGCCAT, with 0.0575 E-score; and AATTAATT, with 0.327 E-score.
In turn, CTATAGGA yielded a binding signal of 0.0674 E-score.
Then CCGTCCGC, with -0.179 E-score.
ACCTACGG yielded a binding signal of 0.13 E-score.
Then CCGGTAAG, with 0.013 E-score; and GCTAACCC, with -0.0526 E-score.
The sequence CCTTCCGA showed a binding signal of -0.265 E-score.
Then ACGACACG, with -0.138 E-score.
Then ATTTTTAC, with 0.328 E-score; and AACCTAGT, with 0.207 E-score; and AGGCGGCC, with -0.381 E-score.
Then GTGTGTAA, with 0.152 E-score; and CCTAGATA, with 0.0777 E-score.
Sequence AGCGCGTC yielded a binding signal of -0.162 E-score.
GCGAGCCA registered a binding signal of -0.148 E-score.
For ATTACAGC, the binding signal was determined as 0.215 E-score.
Then AGACCACA, with -0.105 E-score; and CGTAGGGA, with -0.151 E-score.
In turn, CGACAGTA had a binding signal of 0.208 E-score.
With CGGAAAGC, the binding signal was -0.153 E-score.
Then CGGCGGTC, with -0.0584 E-score.
Then ACCTTTCG, with -0.0711 E-score.

(Values after article PMC6212790.)
